# Measurements from the supplement of paper PMC8728848.
# Some of the results follow.
# B1: LecB LY19 (Pseudomonas aeruginosa) (protein)
# chain: MATQGVFTLPANTQFGVTAFANSAGTQTVNVQVNNETVATFTGQSTNNGIIGSKVLNSGGGGKVQILVSVNGRSSDLVSAQVILANELNFALVGSEDSTDNDYNDAVVVINWPLG
# Key:
# Assay in all cases: glycan array binding signal (z-score within array); higher = stronger binding
# Settings in all cases: glycan notation: IUPAC condensed, linker removed
# [1] = target: Man(a1-2)Man(a1-3)[Man(a1-2)Man(a1-6)]Man(a1-6)[Man(a1-2)Man(a1-2)Man(a1-3)]Man
# In short: (§1)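 Negative Z-scores can be read as non-binding. The Z-score is calculated within each array and then averaged across arrays of one protein sequence at different concentrations or buffers and across linkers. Arrays, 3228 in all, were curated from the Consortium for Functional Glycomics database and kept only where the protein sequence was available.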
# [2] = target: Man(a1-2)Man(a1-3)[Man(a1-2)Man(a1-6)]Man(a1-6)[Man(a1-2)Man(a1-2)Man(a1-3)]Man(b1-4)GlcNAc(b1-4)GlcNAc
# In short: as §1
# [3] = target: Man(a1-2)Man(a1-3)[Man(a1-6)]Man(a1-6)[Man(a1-2)Man(a1-3)]Man(b1-4)GlcNAc(b1-4)GlcNAc
# In short: as §1
# [4] = target: Man(a1-2)Man(a1-6)[Man(a1-3)]Man(a1-6)[Man(a1-2)Man(a1-2)Man(a1-3)]Man
# In short: as §1
# [5] = target: Man(a1-2)Man(a1-6)[Man(a1-3)]Man(a1-6)[Man(a1-2)Man(a1-2)Man(a1-3)]Man(b1-4)GlcNAc(b1-4)GlcNAc
# In short: as §1
# [6] = target: Man(a1-3)[Man(a1-6)]Man
# In short: as §1
# [7] = target: Man(a1-3)[Man(a1-6)]Man(a1-6)[Man(a1-2)Man(a1-3)]Man(b1-4)GlcNAc(b1-4)GlcNAc
# In short: as §1
# [8] = target: Man(a1-3)[Man(a1-6)]Man(a1-6)[Man(a1-3)]Man
# In short: as §1
# [9] = target: Man(a1-3)[Man(a1-6)]Man(a1-6)[Man(a1-3)]Man(b1-4)GlcNAc(b1-4)GlcNAc
# In short: as §1
# [10] = target: Man(a1-3)[Man(a1-6)]Man(b1-4)GlcNAc(b1-4)GlcNAc
# In short: as §1
# [11] = target: Man(a1-3)[Man(a1-6)]Man(b1-4)GlcNAc(b1-4)[Fuc(a1-6)]GlcNAc
# In short: as §1
# [12] = target: Man(a1-6)Man
# In short: as §1
# [13] = target: Man(b1-4)GlcNAc
# In short: as §1
# [14] = target: MurNAc(b1-4)GlcNAc
# In short: as §1
# [15] = target: Neu5Ac(a2-3)Gal
# In short: as §1
# [16] = target: Neu5Ac(a2-3)Gal(b1-3)GalNAc
# In short: as §1
# [17] = target: Neu5Ac(a2-3)Gal(b1-3)GalNAc(b1-3)Gal(a1-4)Gal(b1-4)Glc
# In short: as §1
# [18] = target: Neu5Ac(a2-3)Gal(b1-3)GalNAc(b1-4)Gal(b1-4)Glc
# In short: as §1
# [19] = target: Neu5Ac(a2-3)Gal(b1-3)GalNAc(b1-4)[Neu5Ac(a2-3)]Gal(b1-4)Glc
# In short: as §1
# [20] = target: Neu5Ac(a2-3)Gal(b1-3)GalNAc(b1-4)[Neu5Ac(a2-8)Neu5Ac(a2-3)]Gal(b1-4)Glc
# In short: as §1
# [21] = target: Neu5Ac(a2-3)Gal(b1-3)GalNAc6S
# In short: as §1
# [22] = target: Neu5Ac(a2-3)Gal(b1-3)GlcNAc
# In short: as §1
# [23] = target: Neu5Ac(a2-3)Gal(b1-3)GlcNAc(b1-2)Man
# In short: as §1
# [24] = target: Neu5Ac(a2-3)Gal(b1-3)GlcNAc(b1-2)Man(a1-3)[GlcNAc(b1-4)][Neu5Ac(a2-3)Gal(b1-3)GlcNAc(b1-2)Man(a1-6)]Man(b1-4)GlcNAc(b1-4)GlcNAc
# In short: as §1
# [25] = target: Neu5Ac(a2-3)Gal(b1-3)GlcNAc(b1-2)Man(a1-3)[Neu5Ac(a2-3)Gal(b1-3)GlcNAc(b1-2)Man(a1-6)]Man(b1-4)GlcNAc(b1-4)GlcNAc
# In short: as §1
# [26] = target: Neu5Ac(a2-3)Gal(b1-3)GlcNAc(b1-2)[Neu5Ac(a2-3)Gal(b1-3)GlcNAc(b1-4)]Man(a1-6)[Neu5Ac(a2-3)Gal(b1-3)GlcNAc(b1-2)Man(a1-3)]Man(b1-4)GlcNAc(b1-4)GlcNAc
# In short: as §1
# [27] = target: Neu5Ac(a2-3)Gal(b1-3)GlcNAc(b1-3)Gal(b1-3)GlcNAc
# In short: as §1
# [28] = target: Neu5Ac(a2-3)Gal(b1-3)GlcNAc(b1-3)Gal(b1-4)GlcNAc
# In short: as §1
# [29] = target: Neu5Ac(a2-3)Gal(b1-3)GlcNAc(b1-3)GalNAc
# In short: as §1
# [30] = target: Neu5Ac(a2-3)Gal(b1-3)GlcNAc(b1-6)GalNAc
# In short: as §1
# [31] = target: Neu5Ac(a2-3)Gal(b1-3)GlcNAc6S
# In short: as §1
# [32] = target: Neu5Ac(a2-3)Gal(b1-3)[Fuc(a1-4)]GlcNAc
# In short: as §1
# [33] = target: Neu5Ac(a2-3)Gal(b1-3)[Fuc(a1-4)]GlcNAc(b1-3)Gal(b1-3)[Fuc(a1-4)]GlcNAc
# In short: as §1
# [34] = target: Neu5Ac(a2-3)Gal(b1-3)[Fuc(a1-4)]GlcNAc(b1-3)Gal(b1-4)[Fuc(a1-3)]GlcNAc
# In short: as §1
# [35] = target: Neu5Ac(a2-3)Gal(b1-3)[GlcNAc(b1-6)]GalNAc
# In short: as §1
# [36] = target: Neu5Ac(a2-3)Gal(b1-3)[Neu5Ac(a2-6)]GalNAc
# In short: as §1
# [37] = target: Neu5Ac(a2-3)Gal(b1-3)[Neu5Ac(a2-6)]GlcNAc(b1-3)[Fuc(a1-3)[Gal(b1-4)]GlcNAc(b1-6)]Gal(b1-4)Glc
# In short: as §1
binder,measurement,setting,value
B1,glycan array binding signal (z-score),[1],2.32
same,glycan array binding signal (z-score),[2],-0.454
same,glycan array binding signal (z-score),[3],1.3
same,glycan array binding signal (z-score),[4],1.45
same,glycan array binding signal (z-score),[5],1.39
same,glycan array binding signal (z-score),[6],2.19
same,glycan array binding signal (z-score),[7],1.29
same,glycan array binding signal (z-score),[8],-0.382
same,glycan array binding signal (z-score),[9],1.17
same,glycan array binding signal (z-score),[10],1.96
same,glycan array binding signal (z-score),[11],2.09
same,glycan array binding signal (z-score),[12],-0.329
same,glycan array binding signal (z-score),[13],-0.467
same,glycan array binding signal (z-score),[14],-0.549
same,glycan array binding signal (z-score),[15],-0.559
same,glycan array binding signal (z-score),[16],-0.46
same,glycan array binding signal (z-score),[17],-0.536
same,glycan array binding signal (z-score),[18],-0.48
same,glycan array binding signal (z-score),[19],-0.508
same,glycan array binding signal (z-score),[20],-0.539
same,glycan array binding signal (z-score),[21],-0.56
same,glycan array binding signal (z-score),[22],-0.516
same,glycan array binding signal (z-score),[23],-0.543
same,glycan array binding signal (z-score),[24],-0.407
same,glycan array binding signal (z-score),[25],-0.506
same,glycan array binding signal (z-score),[26],-0.314
same,glycan array binding signal (z-score),[27],-0.554
same,glycan array binding signal (z-score),[28],-0.543
same,glycan array binding signal (z-score),[29],-0.552
same,glycan array binding signal (z-score),[30],-0.546
same,glycan array binding signal (z-score),[31],-0.501
same,glycan array binding signal (z-score),[32],2.09
same,glycan array binding signal (z-score),[33],2.39
same,glycan array binding signal (z-score),[34],2.17
same,glycan array binding signal (z-score),[35],-0.554
same,glycan array binding signal (z-score),[36],-0.481
same,glycan array binding signal (z-score),[37],0.082
